Measurements as given in PubChem BioAssay AID686978 (National Center for Advancing Translational Sciences (NCATS), 2013).
Values joined by “and” are separate entries in the source; they are usually repeats but may differ in a detail not shown here. Equal values may be shown once. The whole screen tested about 420,000 compounds, of which about 64,000 (15%) were called active. Inconclusive results, whose numbers are uncertain, are shown with a selection of clear calls. Calls follow the shape of the dose curve; as a rule, active = well fitted inhibition curve with a large enough effect; inconclusive = small, poorly fitted or top-dose-only effect; inactive = flat fitted curve, though single readings scatter. Potencies of inconclusive entries are doubtful fits and often do not repeat.

Test: qHTS for Inhibitors of human tyrosyl-DNA phosphodiesterase 1 (TDP1): qHTS in cells in absence of CPT; also: nearly all actives have a fitted effect of over 55% in size
Details: DT40 Tdp1-/- hTDP1 cells, no CPT, ATP luminescence, 48 h; activity change, negative = growth inhibition: at 46.2 µM (top of the series) unless noted
Method in brief: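 Chicken DT40 Tdp1-/- cells complemented with human TDP1, screened without camptothecin (DMSO vehicle only), 400 cells/well. Compounds pin-transferred, cells incubated at 37 °C for at least 48 hr. Growth read as ATP-dependent luminescence (CellTiter-Glo, 30 min at RT).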
% is scaled to controls: 0 for no effect and ±100 for the full control effect; potency is read from the fitted curve at half-maximal effect; tags tell the direction and shape of the fitted curve.

SMILES	Potency	activity change, negative = growth inhibition
CCC(C)(C)NC(=O)C(c1ccc(OC)cc1)N(C(=O)CCC(=O)Nc1cc(C)on1)c1cccc(F)c1 (stereo unspecified)	inconclusive: 32.6 µM [inhibitor, single point]	
Brc1cccc(Nc2nc(-c3cccnc3)cs2)c1	inconclusive: 23.1 µM [inhibitor, single point]	
COc1cc(C(=O)N(CCN(C)C)CC2CCCN(Cc3ccccc3F)C2)ccc1C (stereo unspecified)	inconclusive: 23.1 µM [inhibitor, single point]	
COc1ccc(NC(=O)CC2C(=O)N(c3ccc(F)cc3)C(=O)N2Cc2ccc3c(c2)OCO3)cc1 (stereo unspecified)	inconclusive: 16.4 µM [inhibitor, single point]	
CN(C)c1ccc(-c2nc(N3CCNCC3)c3ccccc3n2)cc1	inconclusive: 29.1 µM [inhibitor, single point]	
O=C(CCc1ccccc1)NC1(Cc2ccccc2)CCN(CCCc2ccccc2)C1=O (stereo unspecified)	active: 8.2 µM	
COc1ccc(/C=C2\SC(=O)N(CCCC(=O)Nc3ccc(C(=O)O)cc3)C2=O)cc1	inconclusive: 29.1 µM [inhibitor, single point]	
COc1ccc(-c2noc(CSc3nc4sc(C)c(C)c4c(=O)n3-c3ccccc3)n2)cc1OC	inconclusive: 11.2 µM [inhibitor, partial curve, poor fit]	
C(=C\N1CCCCCC1)/c1nnnn1-c1ccc(-c2ccccc2)cc1	inconclusive: 18.4 µM [inhibitor, single point]	
COc1ccccc1NC(=O)c1ccc2c(c1)N(CC(=O)NC(C)(C)C)C(=O)C(C)(C)O2	inactive	
O=C(Nc1ccc(F)c(F)c1)c1ccc(-n2cncn2)c([N+](=O)[O-])c1	inconclusive: 23.1 µM [inhibitor, partial curve, poor fit]	
COc1ccc(-c2c(C)nn3c(N4CCN(c5ccccc5)CC4)cc(C)nc23)cc1OC	inconclusive: 14.6 µM [inhibitor, single point]	
O=C(O)c1cn(-c2ccc(N3CCCC3)c(F)c2)c2c(F)c(F)c(F)cc2c1=O	inconclusive: 23.1 µM [inhibitor, single point]	
CCCNC(=O)C1CC(c2ccccc2C(F)(F)F)=NO1 (stereo unspecified)	inactive	
Cc1ccc(C(=O)C2CCN(CC(=O)NC3CCCC3)CC2)cc1	inactive	
COCCNC(=O)c1cc2sc3ccccc3c2s1	inactive	
CC(C)=C1SC(N2CCN(c3cccc(C(F)(F)F)c3)CC2)=NC1=O	inconclusive: 23.1 µM [inhibitor, single point]	
CCN(CC)S(=O)(=O)c1ccc(NC(=O)COC(=O)CNS(=O)(=O)/C=C/c2ccccc2)cc1	inconclusive: 29.1 µM [inhibitor, single point]	
COc1ccccc1CNC(=O)c1cc(-c2ccc(F)cc2OC)n[nH]1	inconclusive: 13 µM [inhibitor, single point]	
Cc1cc(C)cc(NC(=O)C2CCCN(c3ncccn3)C2)c1 (stereo unspecified)	inconclusive: 29.1 µM [inhibitor, single point]	
CCOc1ccccc1NC(=O)COC(=O)Cc1ccc(-c2ccccc2)cc1		inconclusive: -32.7% [inhibitor]
Cc1cc(C)cc(OCC(=O)NNC(=O)CN2C(=O)c3ccccc3C2=O)c1	inactive	
COc1ccc(C(=O)C2CCN(CC(=O)Nc3ccc(OC)cc3OC)CC2)cc1	inconclusive: 29.1 µM [inhibitor, single point]	
CCCCn1c(N)c(N(CCOC)C(=O)c2cc(C)oc2C)c(=O)[nH]c1=O	inactive	

SMILES	Potency	activity change, negative = growth inhibition
COc1ccccc1CNC(=O)CSc1nc(=O)n(Cc2ccncc2)c2c1CCC2	inactive	
O=C1/C(=C/c2ccccc2F)SC(=S)N1CCC(=O)N1CCCCC1CCO (stereo unspecified)	active: 14.6 µM	
CCC(C)c1ccc(O)c(NC(=O)c2cccnc2)c1 (stereo unspecified)	inconclusive: 23.1 µM [inhibitor, partial curve]	
COc1cc2[nH]cc(C(=O)NCc3ccccc3)c(=O)c2cc1OC	active: 25.9 µM	
CCCn1c(=N)c(C(=O)NC2CCCC2)cc2c(=O)n3cccc(C)c3nc21	active: 11.6 µM	
Cc1cccc(NC(=O)CNC(=O)COc2cc(F)ccc2[N+](=O)[O-])c1C	inconclusive: 29.1 µM [inhibitor, single point]	
CC(=O)c1c(C)[nH]c(C(=O)OCc2nnc(-c3ccc([N+](=O)[O-])cc3)o2)c1C	active: 14.6 µM	
CS(=O)(=O)N1CCN=C1SCc1ccc(F)cc1	inactive	
Cc1cccc(/C(N)=N/OC(=O)c2ccc(Cl)cc2Cl)c1	inconclusive: 29.1 µM [inhibitor, single point]	
Cc1nc2c(c(=O)c3ccccc3n2C)c(=O)n1C1CCCCCC1	inactive	
Cc1ccccc1C(=O)N1CCC(C(=O)O)CC1	inactive	
COc1cccc(NC(=O)Nc2ccccc2C(N)=O)c1	inactive	
CN(C)CCNC(=O)Nc1ccc([N+](=O)[O-])cc1	inactive	
Cc1cccc(NC(=O)C2CCN(S(C)(=O)=O)CC2)c1C	inactive	
COC(=O)c1cccc(NC(=O)CN2CCc3ccccc3C2)c1	inactive	
O=C(NCc1ccc(C(F)(F)F)cc1)C1CC(c2c(Cl)cccc2Cl)=NO1 (stereo unspecified)	inconclusive: 14.6 µM [inhibitor, partial curve]	
O=c1cc(CSc2ccccn2)nc(N2CCN(c3ccccc3)CC2)[nH]1	inactive	
O=C(COc1cc(O)c2c(=O)cc(-c3ccccc3)oc2c1)c1ccccc1	inconclusive: 11.6 µM [inhibitor, partial curve, poor fit]	
Cc1ccc(S(=O)(=O)N2CCCC2CNC(=O)C(=O)Nc2ccccc2)cc1 (stereo unspecified)	inconclusive: 23.1 µM [inhibitor, single point]	
Cc1ccccc1C(=O)Nc1ccc(O)cc1C(=O)O	inactive	
COc1ccc(NC(=O)N(Cc2ccc(C)cc2)Cc2ccccn2)c(OC)c1	inconclusive: 29.1 µM [inhibitor, single point]	
CN(CC(=O)Nc1ccc(Cl)cc1)C(=O)CNC(=O)Cc1cccc2ccccc12	inconclusive: 32.6 µM [inhibitor, single point]	
O=[N+]([O-])c1ccc(N2CCOCC2)cc1NCCCO	inconclusive: 29.1 µM [inhibitor, single point]	
CCc1ccc(NC(=O)C(C)Sc2ccc(S(=O)(=O)N3CCN(C)CC3)cn2)cc1 (stereo unspecified)	inconclusive: 20.6 µM [inhibitor, partial curve, poor fit]	

SMILES	Potency	activity change, negative = growth inhibition
COc1cc(-c2cc(-c3ccccc3)nc(SCC(=O)O)c2C#N)cc(OC)c1OC	inactive	
O=C(NCC(c1ccco1)N1CCc2ccccc2C1)c1cccc(Br)c1 (stereo unspecified)	inconclusive: 29.1 µM [inhibitor, single point]	
CCCc1cc(=O)oc2c(C)c(OCC(=O)Nc3ccc(CN4CCOCC4)cc3)ccc12	inconclusive: 23.1 µM [inhibitor, single point]	
Cc1ccc(S(=O)(=O)Nc2cc(-c3ccccc3)nn2C)cc1Cl	inactive	
COc1cc(NC(=O)CCn2cnc3ccccc3c2=O)cc(OC)c1		inconclusive: -33.2% [inhibitor]
CC(=O)c1ccccc1NC(=O)CSCc1nc2sc(C)c(C)c2c(=O)[nH]1	inconclusive: 23.1 µM [inhibitor, partial curve]	
COc1cc(OC)c(OC)cc1C=Cc1ccc2ccccc2n1	active: 14.6 µM	
CC(=C/c1ccc(C(C)C)cc1)/C=N/NC(=O)c1ccncc1		inconclusive: -30.5% [inhibitor]
O=C(NCCS(=O)(=O)c1ccc(Br)cc1)c1ccc(Cl)cc1	inactive	
C[C@H](CO)N1C[C@H](C)[C@@H](CN(C)S(C)(=O)=O)Oc2ccc(NC(=O)c3ccncc3)cc2C1=O	inactive	
Cc1cc(OCCn2cnc3ccccc3c2=O)cc(C(C)C)c1	inconclusive: 25.9 µM [inhibitor, single point]	
Clc1ccc(Cn2ncc3c(NCc4ccco4)ncnc32)c(Cl)c1	inconclusive: 25.9 µM [inhibitor, single point]	
O=[N+]([O-])c1ccc(S(=O)(=O)N2CCN(Cc3ccco3)CC2)cc1		inconclusive: -33.1% [inhibitor]
Cc1nc(CSc2ccc(Cl)cc2)cc(NCc2ccccc2)n1	inconclusive: 11.6 µM [inhibitor, partial curve]	
CC(=O)c1cccc(NC(=O)C2Cc3c(-c4ccc(Cl)cc4)ccnc3O2)c1 (stereo unspecified)	active: 10.3 µM	
COc1cc2cnc(-c3ccsc3)c(-c3ccc(F)cc3)c2cc1OC	inconclusive: 16.4 µM [inhibitor, single point]	
COc1ccc(N2CCN(C(=O)CSc3nnc4c5cc(C)ccc5n(C)c4n3)CC2)cc1	inconclusive: 16.4 µM [inhibitor, partial curve]	
CCOc1cccc(C(=O)Nc2ccc3oc(-c4cccnc4)nc3c2)c1	inconclusive: 20.6 µM [inhibitor, single point] and inconclusive: 6.51 µM [inhibitor, full curve, poor fit]	
c1ccc(NN(Cc2ccncc2)c2ccccc2)cc1	inconclusive: 29.1 µM [inhibitor, single point]	
CCOc1ncccc1C(=O)OCC(=O)NCc1ccc(C(=O)OC)cc1	inactive	
CCCCSCCCNC(=O)c1cn(CC)c2ccc(S(=O)(=O)N3CCCCCC3)cc2c1=O	inconclusive: 29.1 µM [inhibitor, single point]	
COc1ccccc1CNC(=O)C1CC2Cn3c(nc4cc(C)c(C)cc43)C2N1C (stereo unspecified)	inactive	
CCN(CC)S(=O)(=O)c1ccc(N/N=C(\C)c2ccc3c(c2)OCO3)c([N+](=O)[O-])c1	active: 14.6 µM	
